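Growth conditions: 96-well plates. Treatment: test compound, 48 hours, 5 concentrations. Analysis: linear interpolation between bracketing concentrations; unreached endpoints set to highest concentration. GI50 = concentration required for 50% inhibition of growth. TGI: concentration producing complete growth inhibition.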

The test system of the assay is NCI-H322M lung. Briefly: inhibition of tumour cell growth, NCI panel, 48 h.
The compound `CCCCN(c1ccccc1)c1ncnc2c1cnn2C` displayed a TGI of over 100 µM.
`CCN(CC)CCNc1c(OC)cc(C)c2sc3ccccc3c(=O)c12` showed a TGI of 22.4 µM.
For `O=C(Nc1ccccc1C(F)(F)F)c1cccc(NC2=C(Cl)C(=O)N(Cc3ccccc3)C2=O)c1`, the GI50 was 19.1 µM and the TGI was over 100 µM.
Turning to `CC#CC(O)(C(=O)OC1CCCN(C)C1)C1=CC=CCC1` (stereo unspecified), the TGI is over 100 µM.
In turn, `NC(=O)c1c[se]c(C2OC(CO)C(O)C2O)n1` (stereo unspecified) registered a TGI of over 100 µM.
On the same count and under the same terms, to `NC(N)=N/N=C(/c1nc2ccc([N+](=O)[O-])cc2[nH]c1=O)C(O)c1ccco1` (stereo unspecified) belongs over 100 µM.
`CCOC(=O)c1cn(-c2ccc(Cl)cc2)c(=O)n2c1nc1ccccc12` had a TGI of over 100 µM.
Compound `CN1CC(c2ccccc2)N(CCCCN2CC(c3ccccc3)N(C)CC2c2ccccc2)CC1c1ccccc1` (stereo unspecified) displayed a TGI of over 100 µM.
Compound `Cc1ccc(O)c(C2=NNC(c3cccc(Br)c3)C2)c1` (stereo unspecified) came in with a TGI of over 100 µM.
Compound `Nc1ccc(C(=O)N/C(=C\C=C\c2ccco2)c2nc3[nH]c(=S)[nH]c(=O)c3[nH]2)cc1` showed a TGI of over 100 µM.
Consider `CC1(C)C=CC[C@]2(C)[C@H]3CC[C@@H]4[C@H]5[C@H](C(=O)/C=C/c6cccnc6)CC[C@]5(CO)CC[C@@]4(C)[C@]3(C)CC[C@@H]12`, for which the GI50 was 1.52 µM and the TGI is 2.9 µM.
Consider `COc1cc(C2C3=C(COC3=O)OC(C)(C)Oc3cc4c(cc32)OCO4)cc(OC)c1OC` (stereo unspecified), for which the TGI is over 100 µM.
Regarding `CSc1nncc(-c2cc3c(c(SC)n2)CCC3)n1`, the TGI was over 100 µM.
The compound `CCOC(=O)c1c(N2CCOCC2)[nH]c(=O)c(C(c2ccc(OC)cc2)c2c(O)c(C(=O)OCC)c(N3CCOCC3)[nH]c2=O)c1O` showed a TGI of over 100 µM.
Same read-out and setting: as for `CSC(=NC1=NC(C(F)(F)F)(C(F)(F)F)N=C(c2ccccc2)O1)SC`, the figure is over 100 µM.
Consider `CC[N+](CC)=c1ccc2nc3c(cc(N)c4ccccc43)oc-2c1`, for which the GI50 is 0.277 µM and the TGI was 1.03 µM.
For `COC(=O)c1cncc2c1CC1C3(C(=O)OC)C=NC(C4C(CO)=CCC43)C21C` (stereo unspecified), the TGI is over 100 µM.
Compound `O=C1C=CC(=O)c2ncccc21` yielded a TGI of 23.2 µM.
On to `CN1C2CC(=O)CC1[C@@H]1OC(c3ccccc3)O[C@H]21` (stereo partly specified), for which the TGI was over 100 µM.
The compound `O=C1[C@@H]2Cc3c([nH]c4ccccc34)C(C3CCCCC3)N2C(=O)[C@@H]2CCCN12` (stereo partly specified) displayed a TGI of over 100 µM.
As to `CCOC(=O)[C@@H](C)C[C@H](Cc1ccccc1)NC(=O)c1csc([C@@H](C[C@H](C(C)C)N(C)C(=O)[C@@H](NC(=O)[C@H]2C[C@H](O[Si](C)(C)C(C)(C)C)CCN2C)C(C)C)OC(C)=O)n1`, the GI50 was 0.318 µM and the TGI was over 8.33 µM.
With `Oc1ccc(Br)cc1Sc1cc(Br)ccc1O`, the GI50 is 16.7 µM and the TGI is 32.4 µM.
As to `COc1cc2nc(-c3ccc(C(F)(F)F)cc3)cc(OCCCN3CCOCC3)c2cc1OC`, the GI50 is 10.5 µM and the TGI came out at 22.6 µM.
Consider `CCCCSc1n/c(=C\c2ccc(N(C)C)cc2)c2nnnn12`, for which the TGI was over 100 µM.
Compound `Cc1[nH]c(-c2ccccc2)c(-c2ccc(Cl)cc2)c1C(=O)ONC(=O)c1ccccc1` had a TGI of 22.7 µM.
As to `CC1CC(c2ccccc2)=Nc2ccccc2S1(=O)=O` (stereo unspecified), the TGI is 23.3 µM.
`Cc1cc2c(CC(=O)O)[nH]nc2c(C(=O)O)c1C`: the TGI was over 100 µM.
With `CN1CCN(CCSC2Cc3cc(Cl)ccc3Sc3ccccc32)CC1` (stereo unspecified), the TGI came out at 23.6 µM.
Turning to `COS(=O)c1cc(Cl)cc(Cl)c1O` (stereo unspecified), the TGI is over 100 µM.
`O=C(O)c1ccccc1/C=N\NC1=NCCCCN1` gave a TGI of over 100 µM.
The compound `COc1ccc(-c2c(C#N)c(-c3ccccc3)n(NS(=O)(=O)c3ccccc3)c(=O)c2C#N)cc1` came in with a TGI of over 100 µM.
The compound `C/C=C/[C@H]1O[C@@](OC)([C@@H](C)[C@H](O)[C@H](C)[C@H]2OC(=O)/C(OC)=C/C(C)=C/[C@@H](C)[C@@H](O)[C@@H](C)[C@@H](O)[C@H](C)C/C(C)=C/C=C/[C@@H]2OC)CC(OC2CC(O)C(OC(N)=O)C(C)O2)[C@@H]1C` (stereo partly specified) showed a TGI of 21.2 µM.
As for `CCC(=O)c1cn(C)c(=O)c2ccccc12`, the TGI is over 100 µM.
The compound `Cc1cc2nc3c(=O)n(C)c(=O)nc-3n(-c3ccc(Cl)cc3)c2cc1C` gave a TGI of 47.3 µM.
`CC[N+](CCCCCCCCCC[N+](CC)(c1ccccn1)c1ccccn1)(c1ccccn1)c1ccccn1`: the GI50 is 3.19 µM and the TGI was found to be 17.1 µM.
Turning to `O=C1c2cc(Br)ccc2-c2c1c1ccc([N+](=O)[O-])cc1c(=O)n2CCCCl`, the GI50 is 0.513 µM and the TGI amounted to 14.8 µM.
`c1cnc2c(c1)-n1cccc1C1(CCSCC1)NN2` registered a TGI of over 100 µM.
The compound `CCOC(=O)C(C)(C)Oc1ccc2c(=O)cc(-c3ccc(Cl)cc3)oc2c1` returned a TGI of over 100 µM.
In turn, `CC(=O)O/N=C/c1ncccc1CO` registered a TGI of over 100 µM.
Regarding `O=[N+]([O-])c1ccc2[nH]cc(-c3c4ccsc4cc4[nH]c5ccc([N+](=O)[O-])cc5c34)c2c1`, the GI50 was 1.34 µM and the TGI worked out at 6.07 µM.
With `CCCCCCCCCCCCCCCCNc1nc(=O)n(C2CC(O)C(CO)O2)cc1F` (stereo unspecified), the TGI amounted to 25.4 µM.
Consider `O=C1c2ccccc2CC12Cc1ccc3c(c1C2)CCC3` (stereo unspecified), for which the TGI came to 90.7 µM.
On the same count and under the same terms, to `O=c1cc(-c2ccccc2)[nH]c2cccc(S)c12` belongs over 100 µM; to `COC1=CC23C=CC1[C@@H](c1ccccc1)C2=C(C)C(=O)N3C(=O)NC1CCCCC1` (stereo partly specified), 79.2 µM.
Still for that read-out and setting: as for `Cc1nc2ccc(C(F)(F)F)cc2nc1Nc1ccc(Cl)c(Cl)c1`, the figure is 25.4 µM.
For the compound `Cc1cc(/C=C2\SC(=Nc3ccccc3)N(C3CCCC3)C2=O)c(C)n1-c1ccc(Cl)cc1`, the GI50 was over 100 µM and the TGI was over 100 µM.
`Cc1nc(N)sc1C(=O)/C=C/c1ccc(/C=C/C(=O)c2sc(NC(=O)CCCCCCCCC(=O)Nc3nc(C)c(C(=O)/C=C/c4ccc(/C=C/C(=O)c5sc(N)nc5C)cc4)s3)nc2C)cc1` showed a TGI of over 100 µM.
The compound `CCOC(=O)C(Cc1ccccc1)(Cc1ccc(O)cn1)NC(=O)c1ccccc1` (stereo unspecified) had a TGI of over 100 µM.
`CC(=O)OCC1OC(n2c(-c3ccccc3)cc(-c3ccco3)c(C#N)c2=O)C(OC(C)=O)C(OC(C)=O)C1OC(C)=O` (stereo unspecified) came in with a TGI of over 100 µM.
On to `CC(=O)CC1CCC(=O)CCC(=O)OC(CC(C)=O)CCC(=O)CCC(=O)O1` (stereo unspecified), for which the TGI is over 100 µM.
`COc1cc(-c2cnn(C)c2)ccc1Nc1ncc2ccnc(N[C@@H](C)C(C)(C)C)c2n1`: the GI50 was over 100 µM and the TGI was over 100 µM.
The compound `N#CCc1nc(C#N)c(N)o1` registered a TGI of over 100 µM.
Consider `O=C(Nc1ccc(Cl)cc1)Nc1ccc(Cl)c(Cl)c1`, for which the GI50 was 4.53 µM and the TGI is over 100 µM.
For the compound `C=C1C[C@]23C[C@@]1(O)CC[C@H]2[C@@]12C=C[C@H](O)[C@@](C)(C(=O)O1)[C@H]2[C@@H]3C(=O)O`, the TGI was over 100 µM.
Take `Cc1cc(S(=O)(=O)Nc2nnc3cc(C(F)(F)F)cc(C)n23)c(S)cc1Cl`: the TGI is over 100 µM.
The same measure, in the same setting: to `N#CC(C#N)=C(N)/C(C#N)=C\c1ccnc2ccccc12` belongs over 100 µM.
`COc1ccc(/C=C/c2cc(OC)c(OC)c(OC)c2)cc1NC(=O)/C=C/c1ccc(F)cc1`: the GI50 is 6.84 µM and the TGI was over 100 µM.
Compound `CCN(CC)CCCNc1ccc2nnn3c4ccc(O)cc4c(=O)c1c23` registered a TGI of 21.5 µM.

The values above are taken from PubChem BioAssay (NCI).
